Measurements as given in the supplement of paper PMC4466236.
The full ranking holds about 33,000 sequences; the median of “E-score (dimensionless, -0.5 to 0.5)” is about -0.058, and the highest 2% start at about 0.35. Some of the results follow.

System: MvaT
Assay: PBM 8-mer E-score (mean of HK and ME arrays) (E-score (dimensionless, -0.5 to 0.5)); higher = stronger relative binding preference; most listed sequences are background and not binding sites
Outline: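 Full-length P. aeruginosa MvaT carrying an N-terminal glutathione S-transferase tag was tested by protein binding microarray following a previously described protocol. Two universal double-stranded 60-mer arrays, ME and HK, were used, each with a constant 25-mer primer region and a variable 35-mer region covering all 8-mers. The rank-based E-score is the mean of the two arrays, parsed with a custom script. Its range runs from -0.5 to 0.5 for each 8-mer.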

Sequence	PBM 8-mer E-score
ACGTTAGC	-0.113
ATGTACTG	0.0516
CAGTAAAC	0.112
CCTAGGCA	-0.26
ATTAATAC	0.41
ACAACGAC	0.184
GAGGCCTC	-0.305
CTCAGGTA	-0.12
ACGGCTCC	-0.0683
ATTGCGAC	0.169
CACTTCTC	-0.0902
GCGGTGGA	-0.12
AGGCGGAT	-0.131
CCTTACTC	-0.188
CGAGTGCA	-0.0773
AGCTTATC	-0.0186
CGGCTGAG	-0.267
CTCCCGAG	-0.329
GCATGTAC	0.0279
CTCGTAAG	-0.0264
CATAGCAA	-0.0303
GGTGAGCA	-0.162
CCCATGGG	-0.275
GTATACTA	0.373
GCAGGTAC	-0.188

Sequence	PBM 8-mer E-score
ACCATGGG	-0.258
GCCGCAAA	-0.0938
TATTAGAA	0.317
ACCCTAAA	-0.0353
AGGAAAAA	-0.0406
CGTAATGC	-0.00986
AATACCTA	0.259
TCAAGAAA	0.0128
AGAAGCAT	-0.106
ATTCGATA	0.144
CAAGACGC	-0.233
GGAAAAAA	-0.0486
CACCAAGG	-0.274
GAGAAAAA	0.0692
TCCGGTAA	-0.166
ATGCTACC	-0.185
AAAGCGAT	0.101
CGCTACAG	-0.175
AAGAAAAC	0.0461
ATATCGAA	0.226
ATACGGAC	0.0892
ACGATCTC	-0.219
AAGGTTCT	-0.147
CTATGTCC	-0.0536
CCTGGTTC	-0.254

Sequence	PBM 8-mer E-score
CCGTGAAC	-0.124
CGATTTTA	0.199
ACCCACAG	-0.218
CGCGAATA	0.117
CAGAAATC	-0.165
CAGACGTC	-0.172
ACACACCG	0.00166
AGTCTCTG	0.0985
ATCAAGTC	-0.108
CAGCGGGA	-0.148
AGAAAATC	-0.0283
ACGATTTC	-0.0369
AGATCGAT	0.118
GATATATC	0.396
ACTGAGTA	-0.0103
CTGGAATA	0.151
GTCCACAC	-0.0464
AACTACGC	0.144
AAGACCAG	0.0132
GTAGCAAC	0.0241
CACGTTGG	-0.231
ACGGCGCG	-0.116
ACTCCATA	0.11
ATAGCCGC	0.04
CGTCGACC	-0.23

Sequence	PBM 8-mer E-score
CACCGCAG	-0.151
CGTTTAGA	-0.0515
GAGCGCCA	-0.239
GTCACCCA	-0.0972
CTTACACA	0.0906
AACAGGCA	0.0124
ACACCCGG	-0.144
AGTTGCAT	0.182
GCCGGAAC	-0.224
ACATTTCA	0.153
ATAGTTCA	0.223
AATCCCGA	-0.0419
ATAATGCA	0.36
AGAGCATA	-0.00836
CGCAGCAC	-0.286
AATATGGG	0.243
CTTGCTCA	-0.0242
ACATACAT	0.275
ACAGCAAA	0.131
CGTGGAAA	0.0364
ATTCTTGC	0.0322
GCTCGGAC	-0.366
CGTCTGCC	-0.361
CCATAGTC	-0.144
GAATGGTC	-0.0963

Sequence	PBM 8-mer E-score
ACAATGGT	0.0718
AAGCGATT	0.0267
CCCGTCCA	-0.107
AGACCTCG	-0.132
GATAAGTA	0.297
AACCCCAA	-0.113
ATTCCAGG	-0.121
ACCTGTAC	-0.0723
GATCCGCA	-0.305
CCCGCATC	-0.29
AGGCTGTC	-0.213
TACGGCAA	0.092
CCAGGGTC	-0.315
CGAACGAC	-0.179
CCTGACAA	-0.1
CCATTCTA	0.0932
AGTACCTG	-0.0974
CGAAAATC	-0.112
TATCGTCA	-0.0126
ACGCGGCT	-0.237
AGCTACAT	-0.0316
ACTTCGTG	-0.0413
CCACTCCA	-0.176
CATTGCCA	0.0291
CGAGATCA	-0.0866

Sequence	PBM 8-mer E-score
TCAAGCAA	-0.0464
AGCCGACG	-0.408
CTTCGGGA	-0.129
CCGCGTGA	-0.128
GTCCAATA	0.0714
GAAGGGCC	-0.311
GAGACGCA	-0.301
CAGGTGTA	-0.0673
GCGCGGAA	-0.0364
GCTGCGTA	-0.0707
CAGTGAAC	0.0424
GATAAGAC	0.109
GTAACCAA	-0.121
ACTTTCAA	0.307
GCCTGCGC	-0.287
ACACCGGA	-0.0117
GACGTAAA	-0.0188
CATGCGGG	-0.325
CAAGCGTC	-0.218
AGGCGGGA	-0.132
ATGGCTAC	-0.151
GACTACTA	0.209
GAGACATC	-0.0544
CTATAAGC	0.112
CAGGTACG	-0.0664

Sequence	PBM 8-mer E-score
CGCAATCA	-0.0216
AAGAAAAT	0.0894
ATTCCGAA	0.0606
CCCTATCG	-0.19
ATGGGAAC	-0.0891
TCTAGCAA	-0.0133
CGTCCTTC	-0.201
CGTATAGA	-0.0157
AGAAAGGC	-0.118
GCATCTAA	0.183
CACGGAAC	-0.0491
ACTTAGTC	0.0288
TATAGTGA	0.255
TCGTAGCA	-0.139
GTGTTAAC	0.219
CGCCCACC	-0.194
ACTTAAAT	0.331
ACTGTAAG	0.0449
AGCTTGTA	-0.0236
GCCCTACA	-0.172
ACTTAGAC	0.185
ATAAAGAT	0.333
GGAGAGAC	-0.175
GGATGTCA	-0.0552
CTCTGCTA	-0.0795

Sequence	PBM 8-mer E-score
CCGTGAGA	-0.232
ACGCAGTA	-0.174
ATCTTGCG	-0.0884
CACGTTTC	-0.0924
ATCACTGG	-0.032
ATGCTCAA	0.00499
CAGTCGCG	-0.0997
GGACACAA	-0.0265
CATCATAG	-0.0306
CCTACCAC	-0.0618
ATAGCGGG	-0.115
GGCACTAA	-0.0251
CCGGGTCG	-0.26
CGGCAAGA	-0.133
ACGGTGCT	-0.275
CGACGCGA	-0.231
GGCATCCC	-0.218
GGCTCAGA	-0.266
ACCGGATG	-0.127
AGGATGAT	-0.205
CGGCGCGA	-0.211
AGCCCACT	-0.242
ACCCGATA	0.0153
CATCCAGA	0.00739
CCACACAA	0.00359

Sequence	PBM 8-mer E-score
CGTGGTGA	-0.229
ACTAGCAA	-0.000967
GTCGTAGA	-0.233
AGCCCCCT	-0.369
CTTGTAGC	-0.00649
ACGCGGAC	-0.268
GCTGGTAC	-0.0889
CCACGCCA	-0.143
AGCTCCTA	-0.104
CTATGCGC	-0.0745
AGTAAGCA	0.141
CAACCTTC	-0.176
GCTTTTCC	-0.109
TCTCGCAA	-0.0626
GAGCATCA	-0.131
TCTGATCA	-0.0103
GAGGGCTA	-0.209
AAAGTACA	0.223
GAGTGTTA	0.0616
ACTTTGAT	0.114
AAAAATAG	0.0973
AATGGTAC	0.129
GGTGCTGA	-0.124
AGCCGTCC	-0.199
ACATCCAC	0.0934

Sequence	PBM 8-mer E-score
GGGAGCGA	-0.224
GATCTAAA	0.0578
ATCACTCA	0.133
ACTAGAGG	-0.105
CCGAGTGA	-0.146
GATACTCA	-0.0124
GACTCGCC	-0.136
CATCTGGG	-0.185
GCTTAGCC	-0.258
GGGATGCA	-0.112
ACAATCTA	0.155
AGACACGA	-0.182
ATCTACCG	-0.0721
TGACTGAA	0.0636
AACTAGAG	-0.019
CGCACACC	-0.0751
ACGGCTTA	0.0112
AATTACAA	0.367
AACATAAA	0.286
GGGGACGA	-0.14
AGATTTAT	0.232
ACAACACG	0.00247
CCATACGG	-0.228
TTAGGCAA	0.023
ATTAGTCG	0.0683

Sequence	PBM 8-mer E-score
CACATCAG	-0.0164
GGGTAGTA	-0.0229
AGTACGCC	-0.234
ACGGTCTC	-0.16
CCTAACAC	-0.0549
CGGCTTAG	-0.15
ACTCCCTA	0.0147
AATTTGTG	0.102
AAGGACAA	0.0885
AAACTTCT	0.272
GGCAAGCC	-0.339
TAGCGCAA	-0.0182
GCGTATTA	0.193
GTAGCGCA	-0.142
CCGGCTAA	-0.0917
CTGGGACA	-0.14
AACGCACT	-0.00127
GACTAGCA	-0.207
AATCGAAT	0.0272
GCCCAGGA	-0.233
TAACTATA	0.336
GCGGCAGC	-0.249
CTGCCGCA	-0.175
CTATAATC	0.295
ACGCTGTA	-0.185

Sequence	PBM 8-mer E-score
CTTTAGAA	0.159
ACGTAGGA	-0.148
GGCGAAAA	0.118
AGCAGAGA	-0.146
ACGAAATG	0.034
AGCGCCGC	-0.252
CACCCGAA	-0.204
AATGCCGA	-0.104
GTCGTCGA	-0.115
AGAAGGCA	-0.201
CCGAGCAC	-0.121
GCATTTAA	0.326
CCATCGCG	-0.214
GAAGTCCA	-0.139
AGTTTCGC	0.0462
ACCTTAAC	0.0724
GGTGTATA	0.127
GATGCCAC	-0.247
ATTAAGAG	0.297
ACCAGCCC	-0.143
AACCGTCC	-0.105
AGCGCGGG	-0.347
CCGAAGCA	-0.136
CAACATTG	0.0214
CACCACAC	-0.0372

Sequence	PBM 8-mer E-score
CGTGACAG	-0.131
ATCCGACA	-0.132
GACTTTCC	-0.0101
AGACGATG	-0.178
CATGTAGA	0.0372
GCTGGATA	-0.0729
ATCTGCAC	-0.152
CCCGCTAA	-0.161
ACCAGGCC	-0.273
TAAATCGA	0.182
CAGTGGGG	-0.207
GAGGAAAC	-0.144
CTGCTGTC	-0.222
ATCGAGTC	-0.0107
AACAGATA	0.157
ACCTATAA	0.208
GACTTACA	0.0985
CACTAGTA	0.152
GATGCCTA	-0.224
GCGGTGCC	-0.188
CGGTTGAC	-0.092
AGATTCTG	-0.0938
GATTGCGA	-0.0169
CATATCAG	0.0279
CAGACCCA	-0.0878

Sequence	PBM 8-mer E-score
CTGCTAGA	-0.212
CGTAAAGA	0.0321
CCCGGCCG	-0.179
GCGTCCTA	-0.11
AATACTGG	0.12
CCCAGCAC	-0.209
CATACATC	0.0581
GGGTACCC	-0.345
CAAAGCCA	-0.0918
AGGGGAGG	-0.325
ATCCACAT	0.0886
AAACAGTG	0.0852
CGCGGTGC	-0.206
CTTCCTGA	0.0262
AGCGTCCA	-0.149
AATATTTG	0.349
CAACTTCG	0.227
ACCCGACA	-0.206
CCTATATA	0.35
